Data on 91 molecules can be found in PubChem BioAssay AID360 (National Center for Advancing Translational Sciences (NCATS), 2006).

Structures are written as SMILES. The campaign covered roughly 48,000 compounds. About 550 (1.1%) were called active. About 4% were inconclusive and are not listed. Cut-off read from the data, not from the text of the source: active = potency below about 15 µM; inconclusive = mostly about 16 µM to 33 µM; inactive = weaker than that. The list shows a part of the results.
Potency is the fitted concentration of half-maximal effect.

The target of this experiment is Lysosomal acid glucosylceramidase (Homo sapiens) (UniProt P04062). Briefly: Glucocerebrosidase.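 Note: the screen sought inhibitors.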 As to conditions: purified enzyme, resorufin glucoside fluorescence (screen aimed at inhibitors), 20 min. Put shortly: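 Normal human glucocerebrosidase (0.2 nM final) was assayed with resorufin β-D-glucopyranoside (30 uM final) in 50mM citric acid/KH2PO4, 10mM sodium taurocholate, 0.01% tween-20, pH 5.9. Compounds were titrated; fluorescence (Ex 548, Em 600) read after 20 min at RT.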
UniProt P04062, sequence (P04062 whole entry, looked up): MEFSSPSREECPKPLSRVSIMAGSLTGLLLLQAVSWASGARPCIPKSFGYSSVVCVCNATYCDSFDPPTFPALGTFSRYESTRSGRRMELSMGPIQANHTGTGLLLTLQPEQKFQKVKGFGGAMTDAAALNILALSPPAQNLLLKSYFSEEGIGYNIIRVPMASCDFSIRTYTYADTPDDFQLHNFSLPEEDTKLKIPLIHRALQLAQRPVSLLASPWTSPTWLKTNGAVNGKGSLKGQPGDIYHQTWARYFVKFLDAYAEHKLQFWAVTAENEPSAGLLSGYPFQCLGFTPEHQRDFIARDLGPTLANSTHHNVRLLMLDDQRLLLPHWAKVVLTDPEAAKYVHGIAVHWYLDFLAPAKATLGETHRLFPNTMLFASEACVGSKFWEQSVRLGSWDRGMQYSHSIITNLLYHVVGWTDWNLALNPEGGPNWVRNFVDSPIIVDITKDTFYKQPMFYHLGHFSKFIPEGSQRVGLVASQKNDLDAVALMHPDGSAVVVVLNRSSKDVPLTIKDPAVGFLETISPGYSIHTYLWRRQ
Turning to `Cn1c(=O)c2c(nc(N3CCCCCC3)n2Cc2cccc3ccccc23)n(C)c1=O`, the Potency was inactive: > 76.9 µM. For the molecule `O=C(NCc1cccs1)C1CCCN(c2ncccn2)C1` (stereo unspecified), the Potency is inactive: > 76.9 µM. To `CCN(CC)CCOC(=O)c1cccc(Br)c1` belongs inactive: > 76.9 µM. To `COc1ccc(-c2cn3c(C)c(C(=O)Nc4cc(NC(C)=O)ccc4OC)sc3n2)cc1` belongs inactive: > 76.9 µM. `COc1ccccc1-c1nc(S(=O)(=O)c2ccc(Cl)cc2)c(N(C)C)o1`: the Potency was inactive: > 76.9 µM. As to `CCC(c1nnnn1Cc1ccco1)N(Cc1ccccc1OC)Cc1cc2cc(C)ccc2[nH]c1=O` (stereo unspecified), the Potency is inactive: > 76.9 µM.

Consider `NC(=O)C1CCN(C(=O)C23CC4CC(CC(C4)C2)C3)CC1`, for which the Potency is inactive: > 76.9 µM. Take `CN=C1SC(C(=O)O)CC(=O)N1C` (stereo unspecified): the Potency was inactive: > 76.9 µM. As for `CCC(=NCc1ccccc1)C1=C(O)C(C(=O)OC)C(C)(C)CC1=O` (stereo unspecified), the Potency is inactive: > 76.9 µM. In the case of `Cc1noc(C)c1S(=O)(=O)NCCN1CCN(c2ccccc2)CC1` it was inactive: > 76.9 µM. In the case of `O=C(CCN1CCOCC1)Nc1ccc2c(c1)N(C(=O)CN1CCOCC1)c1ccccc1CC2` it was inactive: > 76.9 µM; in that of `COC(=O)c1ccc(C(=O)OC)c(NC(=O)c2ocnc2C)c1`, inactive: > 76.9 µM. In the case of `Cc1cccc2cc(CN(Cc3ccco3)S(=O)(=O)c3ccc4c(c3)OCCO4)c(=O)[nH]c12` it was inactive: > 76.9 µM; in that of `COc1ccc2c(c1OC)C(=O)OC2Nn1cncn1` (stereo unspecified), inactive: > 76.9 µM; in that of `Cc1ccc2nc3c(cc(C#N)c(=O)n3CC3CCCO3)c(=O)n2c1` (stereo unspecified), inactive: > 76.9 µM. On to `CCOC(=O)N1CCN(C(=O)C2CC(c3cc(OC)ccc3OC)=NO2)CC1` (stereo unspecified), for which the Potency is inactive: > 76.9 µM. In the case of `CSc1ccc(C(C(C(=O)c2cccs2)N2CCOCC2)N2CCOCC2)cc1` (stereo unspecified), the Potency was inactive: > 76.9 µM. As to `CCOC(=O)CC(=O)CSc1ncnc2c1cnn2-c1ccccc1`, the Potency is inactive: > 76.9 µM. To `O=S(=O)(NCc1ccco1)N1CCOCC1` belongs inactive: > 76.9 µM; to `CCOc1cccc(C(=O)N(Cc2ccc(F)cc2)C2CCS(=O)(=O)C2)c1` (stereo unspecified), inactive: > 76.9 µM. For the molecule `COc1ccc(NC(=O)Cn2c(C)cc(=O)c3cccc(OC)c32)cc1`, the Potency was inactive: > 76.9 µM.

Regarding `COC(=O)Cc1c(C)c2c(OCc3nn[nH]n3)cc(C)cc2oc1=O`, the Potency was inactive: > 76.9 µM.

Consider `COC(=O)c1ccc(C(C(=O)NCc2ccccc2)N(Cc2ccco2)C(=O)c2cnccn2)cc1` (stereo unspecified), for which the Potency was inactive: > 76.9 µM. In the case of `COC(=O)CSc1nc2c(c(-c3ccco3)c1C#N)CCCC2` it was inactive: > 76.9 µM; in that of `O=C1CC(c2ccc3c(c2)OCO3)Sc2nc3ccccc3n21` (stereo unspecified), inactive: > 76.9 µM; in that of `O=S(=O)(c1ccccc1)N1CCN(Cc2cccc(Cl)c2)CC1`, inactive: > 76.9 µM.

Turning to `CC1(C)CC(NC(=O)CC2CCCCC2)CC(C)(C)N1`, the Potency result is “inactive”. For the molecule `CCCn1nnnc1SCC(=O)Nc1nnc(CC)s1`, the Potency is inactive: > 76.9 µM. In the case of `COc1ccc(OC)c(-c2csc3nnc(SCC(=O)Nc4ccc(NC(C)=O)cc4)n23)c1` it was inactive: > 76.9 µM; in that of `CCc1[nH]nc2c1C(c1ccncc1)C(C#N)=C(N)O2` (stereo unspecified), inactive: > 76.9 µM; in that of `Cc1cccnc1NC(=O)Nc1cccc(C(F)(F)F)c1`, inactive: > 76.9 µM.

On to `CCc1nc2oc3cc(OC)ccc3c(=O)c2c(=O)n1Cc1ccco1`, for which the Potency was inactive: > 76.9 µM. In the case of `CC1CC(N(C(=O)C2CC2)c2ccccc2)c2ccccc2N1C(=O)C1CC1` (stereo unspecified) it was inactive: > 76.9 µM; in that of `NC(=O)COc1ccc2c3c(c(=O)oc2c1)CCCCC3`, inactive: > 76.9 µM. In the case of `O=S(=O)(NCc1ccc(Cl)cc1)c1cnc[nH]1` it was inactive: > 76.9 µM; in that of `O=C(NCc1ccccn1)c1c(O)c2cccc3c2n(c1=O)CC3`, inactive: > 76.9 µM; in that of `Nc1ccc2c(c1)-c1ccccc1S(=O)(=O)N2`, inactive: > 76.9 µM. In the case of `O=C(CCc1nc2ccccc2[nH]c1=O)OCc1ccc(S(=O)(=O)N2CCOCC2)cc1` it was inactive: > 76.9 µM. Regarding `Cc1ccc(NC(=O)CN(C)S(=O)(=O)c2cccs2)cc1F`, the Potency result was “inactive”.

Regarding `Cc1c(C(=O)N2CCc3ccccc32)oc2c1C(=O)CC(C)(C)C2`, the Potency was inactive: > 76.9 µM.

With `Cc1nn(CC(=O)Nc2ccc(C(=O)N(C)C)cc2)c(=O)c2ccccc12`, the Potency is inactive: > 76.9 µM. To `COC(=O)c1ccc(-c2n[nH]c(=O)c3ccccc23)cc1` belongs inactive: > 76.9 µM. To `O=C(NCCc1c[nH]c2ccccc12)c1cccnc1` belongs inactive: > 76.9 µM. Turning to `COc1ccc(C2C(C(=O)NCCN(C)C)c3ccccc3C(=O)N2C)cc1OC` (stereo unspecified), the Potency is inactive: > 76.9 µM. For the molecule `O=C(NCC(c1cccnc1)N1CCOCC1)C1CCCCC1` (stereo unspecified), the Potency was inactive: > 76.9 µM. Consider `CCCCn1c(SCN2C(=O)c3ccccc3C2=O)nc2cc(S(N)(=O)=O)ccc21`, for which the Potency was inactive: > 76.9 µM. To `COC(=O)[C@H](CCSC)NC(=O)NCc1ccc(S(N)(=O)=O)cc1` belongs inactive: > 76.9 µM; to `O=C(CSc1nnc(-c2cccnc2)n1Cc1ccco1)c1ccc(Cl)cc1`, inactive: > 76.9 µM. Turning to `Cc1cc(CNC(=O)c2cc(Br)ccc2Cl)nn1C`, the Potency was inactive: > 76.9 µM. In the case of `O=c1c2ccccc2n(Cc2cccc(F)c2)c(=O)n1C1CCCC1` it was inactive: > 76.9 µM; in that of `COc1cccc(C(=O)CSc2nnc(CNS(=O)(=O)c3ccc(C)cc3)n2C)c1`, inactive: > 76.9 µM; in that of `CCOc1cc(C(N)=O)cc(OCC)c1OCC`, inactive: > 76.9 µM.

For the molecule `CC(NC(=O)c1nn(C)c(=O)c2ccccc12)c1ccc(F)cc1` (stereo unspecified), the Potency is inactive: > 76.9 µM.

Regarding `Cc1ccc(Cl)cc1-n1c(=O)cc(N2CC(C)OC(C)C2)[nH]c1=O` (stereo unspecified), the Potency is inactive: > 76.9 µM.

Turning to `Cn1c(=O)c2c(nc(SCC(=O)N3c4ccccc4CCc4ccccc43)n2C)n(C)c1=O`, the Potency is inactive: > 76.9 µM. In the case of `CCOc1ccccc1/C=c1\sc2ncnn2c1=O`, the Potency was inactive: > 76.9 µM. To `O=C(Nc1ccccc1-c1ccccc1)c1ccco1` belongs inactive: > 76.9 µM.

As for `Cc1[nH]n(CCC#N)c(=O)c1CC(=O)N1CCN(c2ccccc2)CC1`, the Potency was inactive: > 76.9 µM.

Turning to `Cc1csc(NC(=O)CCn2c(=O)oc3ccccc32)n1`, the Potency was inactive: > 76.9 µM. Turning to `CSc1nc(N2CCOCC2)c2c3c(sc2n1)CCC3`, the Potency is inactive: > 76.9 µM.

On to `CCOC(=O)C(CC)Sc1nc2c(c(=O)[nH]c(=O)n2C)n1CCc1ccccc1` (stereo unspecified), for which the Potency is inactive: > 76.9 µM.

Take `COc1ccc2c(CC(=O)Nc3nnc(C4CC4)s3)coc2c1`: the Potency is inactive: > 76.9 µM. In the case of `O=S(=O)(Nc1nccs1)c1ccc2c(c1)OCCO2` it was inactive: > 76.9 µM.

Turning to `COC(=O)c1ccc(CSc2nc3ccccc3c(=O)n2-c2ccc(OC)c(OC)c2)o1`, the Potency was inactive: > 76.9 µM. `O=C(O)C1CC(=O)N(C2CCCCCC2)C1` (stereo unspecified): the Potency was inactive: > 76.9 µM. In the case of `COCCN(Cc1cc2ccccc2[nH]c1=O)C(=O)c1ccccc1OC` it was inactive: > 76.9 µM; in that of `COc1cccc(C(=O)Nc2cnc(NC(=O)c3ccco3)cc2C)c1`, inactive: > 76.9 µM.

On to `O=C(CN(C(=O)C1CSC(=O)C1)c1ccccc1F)NCc1ccc2c(c1)OCO2` (stereo unspecified), for which the Potency was inactive: > 76.9 µM. To `c1ccc(-c2nc3ccccc3nc2N2CCOCC2)cc1` belongs inactive: > 76.9 µM; to `O=C(c1cccnc1)N1CCN(S(=O)(=O)c2ccc(S(=O)(=O)N3CCCC3)cc2)CC1`, inactive: > 76.9 µM; to `CC(C)(C)c1ccc(-c2conc2N)cc1`, inactive: > 76.9 µM. As to `CCOc1ccc(N(CC)S(=O)(=O)c2ccc3c(c2)oc(=O)n3C)cc1`, the Potency is inactive: > 76.9 µM.

Turning to `COc1cccc(-c2nnc(SCC(=O)N(C(C)C)C(C)C)o2)c1`, the Potency is inactive: > 76.9 µM.

On to `c1ccc(C(c2nnnn2C2CCCCC2)N2CCc3ccccc3C2)nc1` (stereo unspecified), for which the Potency is inactive: > 76.9 µM. To `COc1cc(C(=O)NC2=NCCS2)ccc1OCc1c(C)noc1C` belongs “inactive”; to `O=C(O)C(c1ccccc1)C1(O)CCCC1` (stereo unspecified), inactive: > 76.9 µM; to `CCC(=O)Nc1cc(-c2nn(C)c(=O)c3ccccc23)ccc1OC`, inactive: > 76.9 µM. To `CCOC(=O)c1csc(NC(=O)CSc2nnc(C3CC3)n2C)n1` belongs inactive: > 76.9 µM; to `O=C1OCCC1Sc1nc2ccccc2s1` (stereo unspecified), inactive: > 76.9 µM; to `CC1(C)CC(=O)C2=C(C1)OC(/N=C/N1CCOCC1)=C(C#N)C2c1ccccc1` (stereo unspecified), inactive: > 76.9 µM. To `CCCc1nc2oc3c(NCCN4CCOCC4)ncnc3c2c2c1CCCC2` belongs inactive: > 76.9 µM; to `O=C(NCCN1CCOCC1)c1ccncc1`, inactive: > 76.9 µM. On to `CC(C)(C)OC(=O)N1CCC[C@H]1c1nnc(SC/C=C/c2ccccc2)o1`, for which the Potency was inactive: > 76.9 µM. To `Cn1c(=O)[nH]c(=O)c2c1nc(N1CCCC1)n2CCCSc1nc2ccccc2o1` belongs inactive: > 76.9 µM; to `O=C(c1ccco1)N1CCN(C(c2ccc(F)cc2)c2nnnn2Cc2cccs2)CC1` (stereo unspecified), inactive: > 76.9 µM; to `O=C(NC1CCCc2ccccc21)C1CCN(c2c3c(nc4ncnn24)CCC3)CC1` (stereo unspecified), inactive: > 76.9 µM. For `Cc1ccc(C(C#N)N2CCOCC2)cc1` (stereo unspecified), the Potency was inactive: > 76.9 µM. In the case of `O=C(COc1ccc2c(c1)CCC2)N1CCc2ccccc21` it was inactive: > 76.9 µM. To `CC(SCC(=O)Nc1ccc(S(=O)(=O)N2CCCCC2)cc1)C(=O)O` (stereo unspecified) belongs inactive: > 76.9 µM; to `CCOC(=O)c1ccc(Nc2nnc3nc(C)cc(C)n23)cc1`, inactive: > 76.9 µM. `O=C1N(CN2CCC3(CC2)OCCO3)c2ccccc2C12OCCCO2`: the Potency was inactive: > 76.9 µM.
